According to the antibiotic and cytotoxicity screens of Wong et al. (2023):
Some of the results follow.

What was measured:
HSkMC = human skeletal muscle cells; experiment: cytotoxicity call (relative viability < 0.9); details: 10 µM
HepG2 = experiment: cytotoxicity call (relative viability < 0.9); details: 10 µM
S. aureus RN4220 = experiment: growth inhibition call (relative growth <= 0.2); details: 50 µM

Structure (SMILES) | cytotoxicity call (HSkMC) | cytotoxicity call (HepG2) | growth inhibition call (S. aureus RN4220)
C[C@H](CO)N1C[C@H](C)[C@@H](CN(C)C(=O)Cc2ccncc2)Oc2ncc(C#Cc3ccccc3F)cc2C1=O | inactive | inactive | inactive
c1ccc(-c2ccc(C(c3ccccc3)n3ccnc3)cc2)cc1 (stereo not given) | inactive | inactive | inactive
C[C@H]1CN([C@@H](C)CO)C(=O)c2cccc(NC(=O)Nc3ccc(C(F)(F)F)cc3)c2O[C@@H]1CN(C)Cc1ccccc1 | active | inactive | inactive
C[C@H]1CN([C@@H](C)CO)S(=O)(=O)c2ccc(C#Cc3cccnc3)cc2O[C@@H]1CN(C)CC1CCOCC1 | inactive | inactive | inactive
Cn1c([N+](=O)[O-])cnc1COC(N)=O | inactive | inactive | inactive
Cc1noc(C)c1S(=O)(=O)Nc1cccc2c1O[C@@H](CN(C)C(=O)Nc1ccc3c(c1)OCO3)[C@@H](C)CN([C@H](C)CO)C2=O | inactive | inactive | inactive
C[C@@H]1CN([C@H](C)CO)S(=O)(=O)c2ccc(C#CC3(O)CCCC3)cc2O[C@@H]1CN(C)C(=O)Cc1ccncc1 | inactive | inactive | inactive
CCn1cnc2c(=O)[nH][nH]c(=O)c21 | inactive | inactive | inactive
C[C@@H]1CN([C@H](C)CO)C(=O)c2cccc(NC(=O)c3ccc(-c4nccs4)cc3)c2O[C@H]1CN(C)C(=O)Nc1ccccc1 | inactive | inactive | inactive
COCC#Cc1ccc2c(c1)O[C@H](CN(C)C(=O)c1ccccc1)[C@@H](C)CN([C@H](C)CO)S2(=O)=O | inactive | inactive | inactive
CN(C)Cc1nc2c([nH]1)c(=O)[nH]c(=O)n2C | inactive | active | inactive
COc1cccc(-c2cn(CC[C@H]3CC[C@@H](NS(=O)(=O)c4ccccc4Cl)[C@@H](CO)O3)nn2)c1 | inactive | inactive | inactive
Cc1ccc(-c2cccc(C(=O)N[C@H]3CC[C@@H](N)CC3)c2)o1 | inactive | inactive | inactive
CC(C)NC(=O)Nc1ccc2c(c1)CC(=O)N([C@@H](C)CO)C[C@H](C)[C@H](CN(C)C(=O)Nc1ccc3c(c1)OCO3)O2 | inactive | inactive | inactive
Cc1ccc(S(=O)(=O)N(C)C[C@H]2OCCCC[C@@H](C)Oc3ccc(NC(=O)Nc4ccc(F)cc4)cc3C(=O)N([C@@H](C)CO)C[C@H]2C)cc1 | inactive | active | inactive
O=C1CCc2c(ccc3ccccc23)O1 | inactive | inactive | inactive
COc1ccc(CN(C)C[C@@H]2OCCCC[C@@H](C)Oc3ccc(NC(=O)Nc4ccc(C(F)(F)F)cc4)cc3C(=O)N([C@@H](C)CO)C[C@H]2C)cc1 | active | active | inactive
C[C@@H]1CCCCO[C@H](CN(C)Cc2ccc(C(=O)O)cc2)[C@@H](C)CN([C@H](C)CO)C(=O)c2cc(NC(=O)Nc3ccc(F)cc3)ccc2O1 | inactive | inactive | inactive
Cc1ccc(S(=O)(=O)Nc2ccc3c(c2)C(=O)N([C@@H](C)CO)C[C@@H](C)[C@@H](CN(C)C(=O)c2ccccc2)OCCCC[C@H](C)O3)cc1 | inactive | inactive | inactive
C[C@H](CO)N1C[C@H](C)[C@H](CN(C)S(=O)(=O)c2ccccc2)OCCCC[C@H](C)Oc2ccc(NS(=O)(=O)c3cn(C)cn3)cc2C1=O | inactive | inactive | inactive
C[C@@H]1CCCCO[C@@H](CN(C)C(=O)Nc2ccc3c(c2)OCO3)[C@H](C)CN([C@@H](C)CO)C(=O)c2cc(NC(=O)Nc3cccc4ccccc34)ccc2O1 | inactive | inactive | inactive
O=C(C[C@@H]1C=C[C@H](NC(=O)Cc2ccccn2)[C@H](CO)O1)NCCCN1CCOCC1 | inactive | inactive | inactive
CN1C(=O)c2cc(NC(=O)Cc3cccs3)ccc2OC[C@@H]2O[C@H](CC(=O)NCCCN3CCOCC3)CC[C@H]21 | inactive | inactive | inactive
Cc1noc(C)c1S(=O)(=O)Nc1ccc2c(c1)CC(=O)N([C@H](C)CO)C[C@H](C)[C@@H](CN(C)Cc1ccc(Oc3ccccc3)cc1)O2 | inactive | active | inactive
COc1ccc(NC(=O)N(C)C[C@H]2OCCCC[C@@H](C)Oc3ccc(NC(=O)Nc4ccc(F)cc4)cc3C(=O)N([C@H](C)CO)C[C@@H]2C)cc1 | inactive | inactive | inactive
C[C@@H]1CN([C@@H](C)CO)C(=O)c2cc(NC(=O)c3ccncc3)ccc2O[C@@H](C)CCCCO[C@H]1CN(C)CC1CCCCC1 | inactive | inactive | inactive
Cc1ccc(S(=O)(=O)N(C)C[C@@H]2OCCCC[C@@H](C)Oc3ccc(NC(=O)Nc4cccc5ccccc45)cc3C(=O)N([C@H](C)CO)C[C@@H]2C)cc1 | inactive | inactive | inactive
C[C@H](NCc1ccc(OCC(N)=O)cc1)C(N)=O | inactive | inactive | inactive

Structure (SMILES) | cytotoxicity call (HSkMC) | cytotoxicity call (HepG2) | growth inhibition call (S. aureus RN4220)
COC(=O)c1c(OC)cc2c(c1C)Oc1c(Cl)c(O)c(Cl)c(C)c1C(=O)O2 | inactive | inactive | inactive
O=C1NC(=O)[C@]2(CCc3ccccc32)N1 | inactive | inactive | inactive
C[C@H]1CN([C@@H](C)CO)C(=O)Cc2cc(NS(C)(=O)=O)ccc2O[C@@H]1CN(C)C(=O)Nc1ccc2c(c1)OCO2 | inactive | inactive | inactive
COc1cccc(S(=O)(=O)N(C)C[C@H]2OCc3cnnn3CCCC(=O)N([C@H](C)CO)C[C@H]2C)c1 | inactive | inactive | inactive
C[C@@H]1CN([C@H](C)CO)C(=O)c2cc(NS(=O)(=O)c3cn(C)cn3)ccc2O[C@@H](C)CCCCO[C@@H]1CN(C)S(=O)(=O)c1cccs1 | inactive | inactive | inactive
Cn1cnc(S(=O)(=O)N[C@H]2C=C[C@@H](CC(=O)NCC3CC3)O[C@@H]2CO)c1 | inactive | inactive | inactive
O=C(N1CCOCC1)[C@]1(CCS(=O)(=O)c2ccccc2)N=C(c2ccc(OCCCO)cc2)O[C@@H]1c1ccccc1 | inactive | inactive | inactive
C[C@@H]1CN([C@H](C)CO)C(=O)c2cc(NS(=O)(=O)c3ccccc3)ccc2O[C@@H](C)CCCCO[C@H]1CN(C)C(=O)Nc1ccc(F)cc1 | inactive | inactive | inactive
C[C@@H]1CN([C@@H](C)CO)C(=O)Cc2cc(NC(=O)Nc3ccccc3)ccc2O[C@@H]1CN(C)Cc1ccc(-c2ccccc2)cc1 | inactive | inactive | inactive
C=CC[C@@H](CC(=O)NCCO)C(=O)N[C@@H](COC(=O)[C@@H](CC=C)CC(=O)OC(C)(C)C)Cc1c[nH]c2ccccc12 | inactive | inactive | inactive
C[C@H]1CN([C@@H](C)CO)C(=O)Cc2cc(NC(=O)c3ccncc3)ccc2O[C@H]1CN(C)Cc1ccc(-c2ccccc2)cc1 | inactive | active | inactive
COCC(=O)Nc1ccc2c(c1)C(=O)N(C)C[C@@H](OC)[C@@H](C)CN(Cc1cccc(F)c1)[C@@H](C)CO2 | inactive | inactive | inactive
C[C@H](CO)N1C[C@H](C)[C@H](CN(C)C(=O)CCC(F)(F)F)OCCCC[C@H](C)Oc2ccc(NC(=O)NC3CCCCC3)cc2C1=O | inactive | inactive | inactive
C[C@H]1CN([C@@H](C)CO)C(=O)c2cc(NC(=O)C3CCCCC3)ccc2O[C@@H]1CN(C)Cc1ccc(-c2ccccc2)cc1 | inactive | inactive | inactive
C[C@H]1CCCCO[C@H](CN(C)C(=O)NC2CCCCC2)[C@@H](C)CN([C@@H](C)CO)C(=O)c2cc(NS(=O)(=O)c3ccc(Cl)cc3)ccc2O1 | inactive | inactive | inactive
C[C@@H]1CN([C@@H](C)CO)C(=O)c2ccccc2-c2ccccc2CO[C@@H]1CN(C)C(=O)Nc1ccc(-c2ccccc2)cc1 | inactive | inactive | inactive
COc1ccc(NC(=O)N(C)C[C@H]2OCCCC[C@@H](C)Oc3ccc(NC(=O)c4ccncc4)cc3C(=O)N([C@@H](C)CO)C[C@H]2C)cc1 | inactive | inactive | inactive
C[C@@H]1CN([C@@H](C)CO)C(=O)c2cc(NC(=O)Nc3ccc(F)cc3)ccc2O[C@@H](C)CCCCO[C@H]1CN(C)Cc1ccc(C(=O)O)cc1 | inactive | inactive | inactive
Cc1ccc(S(=O)(=O)Nc2ccc3c(c2)C(=O)N([C@H](C)CO)C[C@@H](C)[C@H](CN(C)C(=O)Nc2cccc4ccccc24)OCCCC[C@@H](C)O3)cc1 | inactive | active | inactive
NC1=NN(c2ccccc2)C(=O)C1 | inactive | inactive | inactive
C[C@H](CO)N1C[C@H](C)[C@@H](CN(C)C(=O)C2CCCCC2)OCCCC[C@H](C)Oc2ccc(NC(=O)c3ccccc3)cc2C1=O | inactive | inactive | inactive
C[C@H]1CN([C@@H](C)CO)S(=O)(=O)c2ccc(C#Cc3ccccc3)cc2O[C@H]1CN(C)S(=O)(=O)c1ccccc1F | inactive | inactive | inactive
Cc1ccc(Nc2nc3ccccc3s2)cc1Cl | inactive | inactive | inactive
COCCOC(=O)N1C(=O)[C@@]2(c3cc(C#Cc4ccc(OC)cc4)ccc31)[C@H](C(=O)NC[C@H](O)c1ccccc1)[C@H]1C(=O)O[C@H](c3ccccc3)[C@H](c3ccccc3)N1[C@@H]2c1ccc(O)cc1 | inactive | inactive | inactive
COc1cc2c(cc1OC)CN(C(=O)[C@H]1[C@@H]3C(=O)O[C@@H](c4ccccc4)[C@@H](c4ccccc4)N3[C@@H](c3ccc(OCCO)cc3)[C@]13C(=O)Nc1ccc(C#CC4(O)CCCCCC4)cc13)CC2 | inactive | inactive | inactive
C#C[C@@]1(O)[C@@H](CO)O[C@@H](n2ccc(N)nc2=O)[C@@H]1O | inactive | active | inactive
Cc1cnc(N)c(C)n1 | inactive | inactive | inactive
